# From PubChem BioAssay AID1345083 (National Center for Advancing Translational Sciences (NCATS), 2018)
# Out of some 94,000 compounds screened, about 6,200 (6.6%) were called active. This list was built around the results that the source calls inconclusive (neither active nor inactive); the mix of calls is not that of the screen. Calls follow the shape of the dose curve; as a rule, active = well fitted inhibition curve with a large enough effect; inconclusive = small, poorly fitted or top-dose-only effect; inactive = flat fitted curve, though single readings scatter. Where the call is inconclusive, the potency comes from a doubtful curve fit.
# Assay: Cytotoxic Profiling in HEK 293 Cell Line of Diverse Libraries Using Quantitative High-Throughput Screening; also: nearly all actives have a fitted effect of over 60% in size
# Conditions: HEK 293 viability, ATP luminescence (CellTiter-Glo), 48-72 h; activity change, negative = cytotoxicity: at 115 µM (top of the series) unless noted; series mostly up to 115 µM
# In short: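 Pintool-delivered compounds were incubated with HEK 293 cells (250 cells/well) at 37 degree Celsius for 48 or 72 hr. ATP-dependent luminescence (CellTiter-Glo) then reported remaining viable cells.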
# % is scaled to controls: 0 for no effect and ±100 for the full control effect; potency is read from the fitted curve at half-maximal effect; tags tell the direction and shape of the fitted curve.
Compound,"activity change, negative = cytotoxicity",Potency,outcome
COc1ccc2nc(CO[C@H]3CN(Cc4ccc(OC)nc4)C[C@H]3F)[nH]c2c1,inactive: -20.2% [at 172 µM],–,–
CCCCn1c(=O)c(C(=O)N2CCN(c3ncccn3)CC2)nc2cccnc21,inactive: 4.09%,–,–
CCCn1cc2c3c(cccc31)CN(C(=O)Cc1ccc(OC)cc1)CC2,–,"inconclusive: 44.7 µM [inhibitor, partial curve, poor fit]",–
CC(=O)Nc1ccc(C(=O)N2CCn3c(nnc3C3CCCN3)C2)cc1 (stereo unspecified),inactive: -26.1%,–,–
O=C(CN1C(=O)NC2(CCCCC2)C1=O)Nc1cccc(C(F)(F)F)c1,–,"inconclusive: 89.1 µM [inhibitor, single point]",–
Cc1noc2c(NC3CCOCC3)cc(-c3ccccn3)nc12,–,"inconclusive: 112 µM [inhibitor, single point]",–
COCC1CCN(Cc2cc3cc4c(cc3nc2-c2ccc(Cl)cc2)OCO4)C1 (stereo unspecified),–,"inconclusive: 35.5 µM [inhibitor, partial curve, poor fit]",–
O=C(c1ccccc1F)N1CCC2(C1)C(=O)Nc1ccccc12 (stereo unspecified),inactive: 4.97%,–,–
CC(=O)NCCCC(=O)N1CCC2(CC1)CN(C(=O)NC(C)C)CCO2,inactive: -23.4%,–,–
COc1ccc(-c2cc(N3CCCC(NC(=O)c4ccccc4F)C3)n[nH]2)cc1 (stereo unspecified),–,"inconclusive: 39.8 µM [inhibitor, full curve, poor fit]",–
CC(=O)Nc1ccc2nnc(-c3ccc(C(=O)N4CCCCCC4)cc3)n2c1,inactive: -18.4%,–,–
CC(C)NC(=O)N1Cc2[nH]cnc2C[C@H]1C(=O)NCc1ccc(Cl)cc1,inactive: -13% [at 172 µM],–,–
CC(C)(C)NC(=O)N1CCCC1c1nc(CCOCC2CCCC2)no1 (stereo unspecified),inactive: -3.54%,–,–
CNC(=O)c1cc(C2CC2)cc2onc(C3CCN(C(=O)Cc4ccccn4)CC3)c12,–,"inconclusive: 89.1 µM [inhibitor, single point]",–
O=C(c1ccc(Cl)nc1)N1CCCC(C(=O)N2CCC(N3CCOC3=O)CC2)C1 (stereo unspecified),inactive: -18.1%,–,–
O=C(NCCc1ccccc1F)c1cn2cc(-c3ccc(C(F)(F)F)cc3)sc2n1,inactive: -13.9%,–,–
CCCN(CC1CCOC1)S(=O)(=O)c1cccc(OC)c1 (stereo unspecified),inactive: 0.107%,–,–
CCC1CN(Cc2cccc(C)n2)CCC(=O)N1Cc1ccccc1 (stereo unspecified),–,"inconclusive: 89.1 µM [inhibitor, single point]",–
O=C1CC(c2ccccc2)N(C(=O)C2CC2)CCCN(C(=O)CCCc2ccccc2)CCN1 (stereo unspecified),–,–,inactive
Cc1ccc(CNC(=O)c2noc(-c3ccc4c(c3)OCO4)n2)cc1,–,"inconclusive: 56.2 µM [inhibitor, partial curve, poor fit]",–
O=C(c1cccs1)N1CC[C@H](c2nnc(Cc3c[nH]c4ccccc34)o2)C1,–,"inconclusive: 126 µM [inhibitor, single point]",–
